Assay results from PubChem BioAssay AID504333 (National Center for Advancing Translational Sciences (NCATS), 2011).
In all, about 360,000 compounds went through this assay and about 16,000 (4.4%) were called active. The shares of active, inactive and inconclusive entries below differ from those in the screen. Calls come from the whole dose curve; as a rule, active = well fitted inhibition curve with a large enough effect; inconclusive = small, poorly fitted or top-dose-only effect; inactive = no such curve, though single readings can be large or run the other way. Where the call is inconclusive, the potency comes from a doubtful curve fit.

What follows are compounds tested against Bromodomain adjacent to zinc finger domain protein 2B (Homo sapiens) (UniProt Q9UIF8) (assay: qHTS Assay for Inhibitors of BAZ2B). Details: AlphaScreen BAZ2B-H3K14Ac peptide displacement; series mostly up to 114 µM.
How it was run: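 AlphaScreen luminescence quantifies BAZ2B engagement of H3K14Ac peptide; the protein and biotinylated peptide are both at 50 nM final, buffer PBS pH 7.4 with 0.01% Tween-20, all steps at room temperature.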
Note: nearly all actives have a fitted effect of over 60% in size.
Potency is the fitted concentration of half-maximal effect; tags give direction and shape of the fitted curve.

Sequence of UniProt Q9UIF8 (Q9UIF8 whole entry, looked up, the tested form may be a part): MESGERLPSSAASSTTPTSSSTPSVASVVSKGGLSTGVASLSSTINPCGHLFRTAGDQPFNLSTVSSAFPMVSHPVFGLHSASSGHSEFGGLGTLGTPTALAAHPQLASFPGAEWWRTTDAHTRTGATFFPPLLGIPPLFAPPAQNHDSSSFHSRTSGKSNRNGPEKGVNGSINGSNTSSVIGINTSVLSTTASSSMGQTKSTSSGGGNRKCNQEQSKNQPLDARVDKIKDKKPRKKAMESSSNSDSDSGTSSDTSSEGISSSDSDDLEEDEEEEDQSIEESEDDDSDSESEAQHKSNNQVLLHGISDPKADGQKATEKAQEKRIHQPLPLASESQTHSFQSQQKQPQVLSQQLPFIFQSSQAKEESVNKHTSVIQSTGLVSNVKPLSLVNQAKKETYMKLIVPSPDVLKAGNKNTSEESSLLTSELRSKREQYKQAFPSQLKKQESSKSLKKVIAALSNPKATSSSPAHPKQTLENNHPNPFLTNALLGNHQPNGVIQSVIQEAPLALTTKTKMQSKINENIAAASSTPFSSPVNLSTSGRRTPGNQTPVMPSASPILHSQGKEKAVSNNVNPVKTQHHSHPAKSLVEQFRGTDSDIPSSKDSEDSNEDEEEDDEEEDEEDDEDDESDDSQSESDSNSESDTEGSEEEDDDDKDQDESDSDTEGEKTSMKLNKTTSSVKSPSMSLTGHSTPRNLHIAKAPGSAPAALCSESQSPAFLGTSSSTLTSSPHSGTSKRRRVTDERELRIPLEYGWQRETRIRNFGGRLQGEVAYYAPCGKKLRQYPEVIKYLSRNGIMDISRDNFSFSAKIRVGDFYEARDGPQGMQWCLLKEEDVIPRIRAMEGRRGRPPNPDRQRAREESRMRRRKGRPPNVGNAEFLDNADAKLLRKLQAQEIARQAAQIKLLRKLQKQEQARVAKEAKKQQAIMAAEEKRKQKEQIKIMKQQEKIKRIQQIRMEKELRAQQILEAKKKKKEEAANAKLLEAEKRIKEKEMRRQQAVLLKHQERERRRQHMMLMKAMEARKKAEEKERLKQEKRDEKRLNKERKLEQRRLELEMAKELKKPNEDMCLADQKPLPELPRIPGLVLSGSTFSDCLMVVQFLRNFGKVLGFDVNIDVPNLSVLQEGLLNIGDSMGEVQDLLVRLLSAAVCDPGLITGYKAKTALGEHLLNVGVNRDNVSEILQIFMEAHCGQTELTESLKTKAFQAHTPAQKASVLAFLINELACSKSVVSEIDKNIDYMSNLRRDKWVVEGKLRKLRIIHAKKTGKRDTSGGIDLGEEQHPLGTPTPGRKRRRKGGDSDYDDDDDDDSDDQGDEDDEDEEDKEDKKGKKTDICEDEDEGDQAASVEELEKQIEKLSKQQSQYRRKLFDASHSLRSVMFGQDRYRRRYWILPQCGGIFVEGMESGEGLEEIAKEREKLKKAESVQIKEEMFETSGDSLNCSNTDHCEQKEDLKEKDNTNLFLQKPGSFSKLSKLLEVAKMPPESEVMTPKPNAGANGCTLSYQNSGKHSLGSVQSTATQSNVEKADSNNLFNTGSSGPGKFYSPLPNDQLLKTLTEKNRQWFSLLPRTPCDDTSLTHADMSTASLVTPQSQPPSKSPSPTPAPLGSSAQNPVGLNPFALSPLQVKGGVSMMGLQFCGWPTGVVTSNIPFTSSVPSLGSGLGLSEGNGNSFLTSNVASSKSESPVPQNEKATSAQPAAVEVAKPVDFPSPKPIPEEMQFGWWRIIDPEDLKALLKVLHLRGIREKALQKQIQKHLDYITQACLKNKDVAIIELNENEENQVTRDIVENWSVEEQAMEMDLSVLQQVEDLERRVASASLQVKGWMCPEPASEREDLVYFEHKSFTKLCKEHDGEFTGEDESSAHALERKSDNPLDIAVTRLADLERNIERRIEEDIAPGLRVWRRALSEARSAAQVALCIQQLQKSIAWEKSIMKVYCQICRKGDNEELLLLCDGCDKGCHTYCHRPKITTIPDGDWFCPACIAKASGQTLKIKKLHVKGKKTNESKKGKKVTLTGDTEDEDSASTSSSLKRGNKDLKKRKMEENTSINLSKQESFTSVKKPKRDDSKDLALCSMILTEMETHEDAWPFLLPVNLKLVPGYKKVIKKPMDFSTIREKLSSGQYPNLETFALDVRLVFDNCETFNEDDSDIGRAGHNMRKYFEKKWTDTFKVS

| SMILES | Potency |
| --- | --- |
| CCN1C(=O)C(CC(=O)Nc2ccc(F)cc2)N(CCCN2CCN(c3ccc(F)cc3)CC2)C1=S (centres undefined) | inconclusive: 44.7 µM [inhibitor, partial curve] |
| CCNc1nc(C23CC4CC(CC(C4)C2)C3)cs1 | inconclusive: 56.2 µM [inhibitor, partial curve] |
| COc1ccc(-c2csc(N(CCCN(C)C)C(=O)c3ccccc3F)n2)cc1 | inconclusive: 44.7 µM [inhibitor, partial curve] |
| O=C(C1=C(O)C(=O)N(Cc2ccco2)C1c1ccccc1)c1cccs1 (centres undefined) | inconclusive: 89.1 µM [inhibitor, single point] |
| CCOc1ccc(N=C2SC(C(=O)O)CC(=O)N2C)cc1 (centres undefined) | inconclusive: 89.1 µM [inhibitor, single point] |
| Cc1cc(C)cc(N2CN=c3s/c(=C\c4ccco4)c(=O)n3C2)c1 | inconclusive: 89.1 µM [inhibitor, single point] |
| Brc1cccc(C2Nc3cccc4cccc(c34)N2)c1 | inconclusive: 25.1 µM [inhibitor, partial curve] |
| CCN1CCN(CC(=O)N/N=C/c2cc(Br)cs2)CC1 | active: 25.1 µM |
| O=C(c1cccc(F)c1)N1CCN(C(=O)c2cc3ncc(Br)cn3n2)CC1 | inconclusive: 89.1 µM [inhibitor, single point] |
| Cc1c(NC(=O)c2ccc(N3CCC(C)CC3)c([N+](=O)[O-])c2)cccc1-c1nc2ccccc2o1 | inconclusive: 3.98 µM [inhibitor, full curve] |
| Cc1cc(NC(=O)Nc2csc3c2CCCC3)ccc1Br | inactive |
| Cc1nn(Cc2nnc(SCC(=O)Nc3ccc(Cl)cc3)n2C)c(C)c1[N+](=O)[O-] | inconclusive: 100 µM [inhibitor, partial curve] |
| C#CCOCCOCCOCCNc1nc(N2CCOCC2)nc(N2CCN(C(=O)[C@H](Cc3cc4ccccc4[nH]3)n3cc([C@@H](N)C(C)CC)nn3)CC2)n1 (some centres undefined) | inconclusive: 70.8 µM [inhibitor, partial curve] |
| CCn1nc(C(=O)OCC(=O)Nc2ncc(Cl)c(C)c2Cl)c2ccccc2c1=O | inconclusive: 50.1 µM [inhibitor, partial curve] |
| Cc1ccc(-n2c(O)c(/C=N/Nc3ccc(S(=O)(=O)N4CCOCC4)cc3[N+](=O)[O-])c3ccccc3c2=O)c(C)c1 | active: 12.6 µM |
| NS(=O)(=O)c1cccc(NC(=S)NCc2ccccc2)c1 | inactive |
| COc1ccccc1N(C(=O)c1snc(C(N)=O)c1N)C(C(=O)NC1CCCC1)c1ccc(N(C)C)cc1 (centres undefined) | active: 35.5 µM |
| O=C(c1ccco1)N1CCN(C(=O)N2c3ccccc3Sc3ccccc32)CC1 | inconclusive: 50.1 µM [inhibitor, partial curve] |
| CC1Cc2ccccc2N1Cc1cccc([N+](=O)[O-])c1 (centres undefined) | active: 12.6 µM |
| Clc1cccc(-c2nnc(SCc3nc4ccccc4[nH]3)n2Cc2ccco2)c1 | inconclusive: 35.5 µM [inhibitor, partial curve] |
| COc1cc2c(cc1OC)CN(C(=S)Nc1ccccc1Cl)CC2 | inconclusive: 20 µM [inhibitor, full curve] |
| COc1ccc(-c2cc(=O)n(-c3ccc([N+](=O)[O-])cc3)[nH]2)cc1 | active: 39.8 µM |
| Cc1cccn2c(=O)nc(SCC(=O)N3CCCCC3)nc12 | inactive |

| SMILES | Potency |
| --- | --- |
| Cc1ncc(CO)c2c1Oc1nc(-c3ccccc3)nc(SCC(=O)Nc3cccc(C(F)(F)F)c3)c1C2 | inconclusive: 89.1 µM [inhibitor, single point] |
| O=C1/C(=C/c2cccs2)N=C(c2cccs2)N1Nc1ccccc1 | inconclusive: 39.8 µM [inhibitor, full curve] |
| O=S(=O)(c1ccc(F)cc1)N1CCc2ccccc2C1 | inconclusive: 89.1 µM [inhibitor, single point] |
| O=C(Nc1ccc2nc(-c3ccco3)c(-c3ccco3)nc2c1)N1CCN(c2ccccn2)CC1 | inconclusive: 6.31 µM [inhibitor, partial curve, poor fit] |
| CCCCn1c(-c2ccc(C)cc2)c(C)n2c3c(=O)n(C)c(=O)n(C)c3nc12 | inconclusive: 79.4 µM [inhibitor, single point] |
| Cc1ccccc1Cn1cc(NC(=O)c2noc(C(C)C)c2[N+](=O)[O-])cn1 | inconclusive: 70.8 µM [inhibitor, single point] |
| CNC[C@H](O)c1ccc(O)c(O)c1 | active: 50.1 µM |
| CC1=C(C(=O)OCc2ccc(C)cc2)C(c2ccccc2Cl)CC(=O)N1 (centres undefined) | inactive |
| Cc1ccc(CC(=O)OCCNC(=O)c2cccnc2)cc1 | inconclusive: 89.1 µM [inhibitor, single point] |
| CCOc1ccc(NC(=O)NC2CC(=O)N(c3ccc(OC)cc3)C2)cc1 (centres undefined) | inactive |
| COc1ccc(Cc2n[nH]c(=S)n2Cc2ccccc2)cc1Cl | inconclusive: 89.1 µM [inhibitor, partial curve] |
| Cc1[nH]c2ccccc2c1/C=N/NC(=O)c1cc(-c2cccs2)[nH]n1 | inconclusive: 50.1 µM [inhibitor, partial curve] |
| CCOC(=O)CNC(=O)CSc1nnc(-c2ccco2)n1N | inactive |
| CC(=O)c1ccc(NS(=O)(=O)c2ccc3c(c2)N(C(C)=O)CCO3)cc1 | inconclusive: 79.4 µM [inhibitor, single point] |
| CCOC(=O)c1c(C)oc2nc(C)nc(NC(C)c3ccccc3)c12 (centres undefined) | inactive |
| Cc1cc(Cl)ccc1NC(=S)N1CCN(C(=O)c2ccco2)CC1 | inactive |
| Cc1ccc(-n2ncc(C(=O)NCC3CCN(C4CCCC4)C3)c2C2CCN(C(=O)OC(C)(C)C)CC2)cc1 (centres undefined) | inconclusive: 79.4 µM [inhibitor, single point] |
| CCc1ccccc1NC(=O)C1CCN(C2=NS(=O)(=O)C(c3ccc(C)c(C)c3)=C2C)CC1 | inconclusive: 100 µM [inhibitor, single point] |
| O=C(O)CCc1ccc(-c2cccs2)n1CCc1ccccc1 | active: 28.2 µM |
| CN(C)C(=O)CN1CCN(C(=O)CCl)CC1 | inconclusive: 89.1 µM [inhibitor, single point] |
| CCC(=O)NC(c1ccc(OC)c(OC)c1)c1cc(Cl)c2cccnc2c1O (centres undefined) | active: 39.8 µM |
| c1ccc2c(c1)OCC(c1nn3c(Cn4nnc5ccccc54)nnc3s1)O2 (centres undefined) | active: 50.1 µM |
| O=C(CC1C(=O)NCCN1Cc1ccc(F)c(F)c1)NCCCn1ccnc1 (centres undefined) | inconclusive: 79.4 µM [inhibitor, single point] |

| SMILES | Potency |
| --- | --- |
| COc1ccc(-c2csc(NC(=O)CC(NC(C)=O)c3ccccc3)n2)cc1OC (centres undefined) | active: 79.4 µM |
| c1ccc(N2CCN(Cc3ccnc4ccccc34)CC2)cc1 | inconclusive: 89.1 µM [inhibitor, single point] |
| Cc1ccc(OCc2ccc(-c3nc(C#N)c(N4CCC(C)CC4)o3)o2)cc1 | inconclusive: 5.62 µM [inhibitor, full curve] |
| COc1ccccc1NC(=S)NCc1ccc2c(c1)cc(C)n2C | active: 25.1 µM |
| Cc1cc(S(=O)(=O)Nc2ccc3c(c2)n(C)c(=O)n3C)ccc1F | inconclusive: 70.8 µM [inhibitor, single point] |
| O=C(NCCc1ccccc1)/C(=C\c1ccc([N+](=O)[O-])cc1)NC(=O)c1ccco1 | inactive |
| COc1ccc(C(=O)NC(CC(C)C)C(=O)O)cc1OC (centres undefined) | inconclusive: 89.1 µM [inhibitor, single point] |
| O=C(NCCCn1ccnc1)c1nn2c(C(F)(F)F)cc(-c3ccc(Br)cc3)nc2c1Cl | active: 50.1 µM |
| CCC(CC)c1nnc(NC(=O)c2ccc(N3CCCCC3)c([N+](=O)[O-])c2)s1 | inconclusive: 14.1 µM [inhibitor, full curve, poor fit] |
| COC(=O)c1c(C)sc(-c2c(-c3cccc(Cl)c3)[nH]c3c2c(=O)[nH]c(=O)n3C)c1O | inconclusive: 79.4 µM [inhibitor, single point] |
| CN(Cc1ccccc1)Cc1c(O)ccc2ccccc12 | active: 79.4 µM |
| CCOc1ccc(OCCC(=O)N(CC(=O)Nc2ccccc2C(F)(F)F)Cc2ccco2)cc1 | active: 50.1 µM |
| Cc1cc(OCc2nc3ccccc3s2)ccc1N | active: 39.8 µM |
| Cc1cc(C)cc(NC(=O)CCc2ccc(C)o2)c1 | inconclusive: 89.1 µM [inhibitor, single point] |
| O=C(CSC1=NNC(c2ccccn2)S1)Nc1ccc(C(F)(F)F)cc1 (centres undefined) | active: 56.2 µM |
| COc1cc(C=O)ccc1Oc1nc(Nc2ccc(F)cc2F)nc(N2CCOCC2)n1 | inconclusive: 70.8 µM [inhibitor, single point] |
| Cc1ccc(-c2csc(Nc3ccccn3)n2)cc1 | inconclusive: 70.8 µM [inhibitor, single point] |
| CC(C)C1S/C(=N/N=C/c2ccco2)NC1=O (centres undefined) | inactive |
| Cc1ccc(/C=N/Nc2nc3ccccc3s2)o1 | inconclusive: 70.8 µM [inhibitor, single point] |
| COc1ccc(-c2coc3c(C)c4oc(=O)c(CCC(=O)O)c(C)c4cc23)cc1 | inconclusive: 79.4 µM [inhibitor, single point] |
| Cc1ccc(NCC(=O)N/N=C\c2ccc([N+](=O)[O-])o2)cc1 | inconclusive: 89.1 µM [inhibitor, single point] |
| Cn1c(=O)[nH]c(=O)c2c1nc(N1CCN(C(c3ccccc3)c3ccccc3)CC1)n2CCO | inconclusive: 89.1 µM [inhibitor, single point] |
| COc1ccc(N2CCN(C(=O)CCn3cnc4onc(-c5ccc(F)cc5)c4c3=O)CC2)cc1 | inconclusive: 25.1 µM [inhibitor, single point] |
